This note sets out measurements from ChEMBL document CHEMBL4888484, “Replenishing the malaria drug discovery pipeline: Screening and hit evaluation of the MMV Hit Generation Library 1 (HGL1) against asexual blood stage Plasmodium falciparum ,using a nano luciferase reporter read-out” (2022).

As a reminder, the % Inhibition is the drop in the measured response relative to a control, in per cent.

In all, about 150,000 compounds went through this assay and about 540 (0.36%) showed an effect of 50% or more. The list shows a part of the results.

The subject of this experiment is Plasmodium falciparum. Description: Primary screen in NF54 nanoGlo assay, in single point, at 2uM, 72h; a lower Z score goes with more inhibition. It is filed as functional, Erythrocyte. Conditions: timepoint 72 hour.
For `CC(C)(Cc1cccc(Cl)c1)C(=O)NC[C@H](O)c1ccco1`, the “% Inhibition” value was 1% and the Z score is reported as -0.15.

As to `Cc1cc(NC(=O)COc2ccc(Cl)cc2C2CCCCC2)[nH]n1`, the “% Inhibition” value is reported as -13% and the Z score was 1.71.

Regarding `O=C(c1c(F)cc(F)cc1F)C1CCN(C(=O)c2csnn2)CC1`, the “% Inhibition” value is listed as -11% and the Z score is recorded as 1.74.

Consider `Cc1nnc(N2CCC(n3ccnn3)CC2)c(C#N)c1C`, for which the “% Inhibition” value was -19% and the Z score amounted to 2.22.

On to `CC[C@H](NC(=O)N(C)CC1(c2ccccc2)CC1)c1c(C)noc1C`, for which the “% Inhibition” value was -9% and the Z score is 1.08.

Turning to `CC[C@@H]1Oc2ccc(NC(=O)Cc3ccc(F)cc3)cc2CN(CCc2ccccc2OC)C1=O`, the “% Inhibition” value was -6% and the Z score is 0.57.

On to `CCOc1cc(C(=O)Nc2ccccc2-c2ccccc2)ncn1`, for which the “% Inhibition” value is given as -1% and the Z score was found to be 0.13.

As to `Cc1ccc(C(=O)N2CCOC[C@H]2c2ncn(CC(F)(F)F)n2)o1`, the “% Inhibition” value is listed as -3% and the Z score stood at 0.34.

As for `CO[C@H]1CCN(C(=O)CN2CCCCCCC2)C1`, the “% Inhibition” value came out at 6% and the Z score was -0.91.

Take `CC(C)CN(Cc1c(C(C)C)nn(-c2ccccc2)c1N(C)C)C(=O)NC(C)C`: the “% Inhibition” value is -15% and the Z score came to 2.43.

Regarding `CCOc1ccc2ccccc2c1C(=O)Nc1cc(C)nn1-c1nc2c(c(=O)[nH]1)CCC2`, the “% Inhibition” value turned out to be 92% and the Z score is listed as -17.

In the case of `Cc1ccc(CC(=O)N2c3ccccc3N(C)C(=O)C[C@@H]2C)s1`, the “% Inhibition” value is recorded as -5% and the Z score is reported as 1.1.

As to `Cc1ccc(C)c(OCCNC(=O)N2CCO[C@H](C(=O)N(C)C)C2)c1`, the “% Inhibition” value is -15% and the Z score was 2.09.

Regarding `C[C@]1(NC(=O)Nc2ncc(C3CCOCC3)s2)CCCOC1`, the “% Inhibition” value stood at 30% and the Z score is -3.38.

On to `O[C@]1(C(F)(F)F)CC(c2ccc(Cl)cc2)=NN1c1nc2ccccc2s1`, for which the “% Inhibition” value was 5% and the Z score is on record as -0.68.

Take `CC(C)[C@H](CNC(N)=O)Cc1ccccc1`: the “% Inhibition” value is recorded as -4% and the Z score amounted to 0.46.

Turning to `O=C(NCCc1ccco1)c1cc(Cc2ccccc2)no1`, the “% Inhibition” value is -13% and the Z score amounted to 2.64.

With `c1ccc(Oc2cccc(-c3noc(CC4OCCCO4)n3)c2)cc1`, the “% Inhibition” value is recorded as -3% and the Z score stood at 0.46.

`COCCNC(=O)c1ccc(-c2ccc(OC)cc2-n2nc(C)cc2C)o1`: the “% Inhibition” value was -7% and the Z score turned out to be 1.43.

`Cc1ccc(OCc2nc(CC(=O)NCCc3ccccc3)cs2)cc1C`: the “% Inhibition” value is -23% and the Z score is recorded as 4.5.

Consider `Cc1cccc(C[C@H]2CC(=O)N(c3nc4ccccc4s3)C2=O)c1`, for which the “% Inhibition” value is -5% and the Z score came to 0.69.

Regarding `CC(C)COc1nc(-c2ccccc2F)n(-c2ccc(NC(=O)c3ccc(-c4ccccc4)cc3)cc2)n1`, the “% Inhibition” value was 6% and the Z score is reported as -0.73.

Consider `CC(C)/C=C(/C(=O)c1ccc(Cl)cc1Cl)n1cncn1`, for which the “% Inhibition” value was -1% and the Z score came out at 0.13.

Consider `c1cncc(CNc2nc3ccccc3s2)c1`, for which the “% Inhibition” value is recorded as -14% and the Z score was found to be 1.32.

`CCc1nsc(N2CC[C@@H](O)[C@H]2c2ccc(Cl)cc2)n1`: the “% Inhibition” value is recorded as 3% and the Z score is -0.54.

Turning to `Cc1cc(C(=O)N2CCO[C@@H](C)C2)c2c(Br)cccc2n1`, the “% Inhibition” value was 1% and the Z score is listed as -0.24.

Consider `CC(O)[C@@H]1N[C@@]2(C(=O)Nc3c(Cl)cccc32)[C@H]2C(=O)N(CC3CCCO3)C(=O)[C@@H]12` (some centres undefined), for which the “% Inhibition” value is -3% and the Z score was 0.33.

Turning to `Cc1cccc2c3c([nH]c12)CCN(C[C@H]1CCCO1)C3`, the “% Inhibition” value is -4% and the Z score is recorded as 0.72.

As to `Cc1nc2c(C#N)cnn2c(O)c1CC(=O)Nc1ccc(OCC(F)(F)F)cc1`, the “% Inhibition” value is -4% and the Z score was determined as 0.5.

For the molecule `O=C(NCCc1nccs1)C(=O)Nc1c(F)cccc1F`, the “% Inhibition” value is -14% and the Z score amounted to 1.78.

Take `COCCO[C@H]1CN(C2CCN(C(=O)c3ccc4cc[nH]c4c3)CC2)C12CCCCC2`: the “% Inhibition” value came out at 5% and the Z score was -0.79.

As to `CC(CNCC(C)(O)c1cnn(C)c1)c1cccc(Cl)c1` (centres undefined), the “% Inhibition” value turned out to be 1% and the Z score is listed as -0.2.

In the case of `O=S(=O)(Nc1nccn2ccnc12)c1ccc(F)c(Cl)c1`, the “% Inhibition” value is -4% and the Z score is 0.47.

For the molecule `Cc1ccc(O)c(C2=NO[C@](O)(C(F)(F)F)C2)c1`, the “% Inhibition” value is on record as -19% and the Z score is reported as 2.43.

As to `COC1(C)CC(NC(=O)N2CCC3(CCOC3)C2)C1(C)C` (centres undefined), the “% Inhibition” value is -8% and the Z score came out at 0.85.

On to `CC1(CCCN2C(=O)c3ccccc3C2=O)OCCO1`, for which the “% Inhibition” value came out at 0% and the Z score came to 0.02.

Take `CCCOCC(=O)N1C[C@H](O)[C@@H](F)C1`: the “% Inhibition” value is -8% and the Z score is 0.76.

Turning to `CO[C@H]1CN(C(=O)C(C)(C)c2ccccc2)C[C@H]1OC`, the “% Inhibition” value was 1% and the Z score is reported as -0.05.

For `Cc1ccnc(N(C(=O)CCCN2C(=O)c3ccccc3C2=O)C(=O)CCCN2C(=O)c3ccccc3C2=O)n1`, the “% Inhibition” value is given as -8% and the Z score is on record as 0.83.

With `CC1CC(c2cccc(F)c2)N(C(=O)CCC2NC(=O)NC2=O)C1` (centres undefined), the “% Inhibition” value is reported as -1% and the Z score is on record as 0.11.

Turning to `O=C(NC1CCOCC1)N1CC[C@H](c2ccsc2)C1`, the “% Inhibition” value is listed as -25% and the Z score was found to be 3.17.

With `O=C1c2ccccc2[C@@H](Nc2ccc3c(c2)OCCO3)N1c1ccccn1`, the “% Inhibition” value worked out at 35% and the Z score was -4.66.
